Test results: PubChem BioAssay AID485290 (National Center for Advancing Translational Sciences (NCATS), 2010)
In all, about 350,000 compounds went through this assay and about 990 (0.28%) were called active. This list was built around the results that the source calls inconclusive (neither active nor inactive); the mix of calls is not that of the screen. Calls come from the whole dose curve; as a rule, active = well fitted inhibition curve with a large enough effect; inconclusive = small, poorly fitted or top-dose-only effect; inactive = no such curve, though single readings can be large or run the other way. Potencies beside an inconclusive call are fits to weak or partial responses and may not hold up.

molecular target: Tyrosyl-DNA phosphodiesterase 1 (Homo sapiens) (UniProt Q9NUW8); test: qHTS Assay for Inhibitors of Tyrosyl-DNA Phosphodiesterase (TDP1); settings: recombinant TDP1, AlphaScreen DNA substrate cleavage; series mostly up to 130 µM; activity change, negative = inhibition: at the top concentration; note: nearly all actives have a fitted effect of over 40% in size
Chain of UniProt Q9NUW8 (Q9NUW8 whole entry, looked up): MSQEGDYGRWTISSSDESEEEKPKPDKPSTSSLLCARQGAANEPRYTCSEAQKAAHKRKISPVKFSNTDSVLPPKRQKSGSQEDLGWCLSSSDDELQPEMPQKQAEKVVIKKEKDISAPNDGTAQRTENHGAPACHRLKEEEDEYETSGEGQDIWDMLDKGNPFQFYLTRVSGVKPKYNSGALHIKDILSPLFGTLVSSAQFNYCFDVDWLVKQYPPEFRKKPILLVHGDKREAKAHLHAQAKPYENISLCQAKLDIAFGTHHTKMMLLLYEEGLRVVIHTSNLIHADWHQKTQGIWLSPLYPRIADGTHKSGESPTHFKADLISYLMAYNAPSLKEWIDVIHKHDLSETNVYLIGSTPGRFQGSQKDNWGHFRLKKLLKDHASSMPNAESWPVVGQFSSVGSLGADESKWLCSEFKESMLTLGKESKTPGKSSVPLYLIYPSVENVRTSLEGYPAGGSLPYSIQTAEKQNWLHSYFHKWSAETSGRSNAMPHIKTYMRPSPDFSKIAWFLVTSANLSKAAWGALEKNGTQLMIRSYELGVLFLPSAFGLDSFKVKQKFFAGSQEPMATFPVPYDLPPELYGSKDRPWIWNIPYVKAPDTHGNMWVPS
Text: NIH Molecular Libraries Probe Production Network [MLPCN]
NIH Chemical Genomics Center [NCGC]
Assay Provider: Yves Pommier and Christophe Marchand, National Cancer Institute
Assay Title: qHTS Assay for Inhibitors of Tyrosyl-DNA Phosphodiesterase (TDP1); note: nearly all actives have a fitted effect of over 40% in size
Human tyrosyl-DNA phosphodiesterase I (Tdp1) is a rational anticancer target because this enzyme is involved in the repair of DNA lesions created by the trapping of human DNA topoisomerase I (Top1) following treatment by anticancer agents such as camptothecins. Recombinant Tdp1 was expressed and purified from E. coli in the laboratory (Anthony et al, Nucleic Acids Research, 2007, Vol. 35, 4474-4484). A Tdp1 DNA substrate bearing a 5' biotin and a 3' phospho-tyrosine was obtained by custom synthesis. This oligonucleotidic DNA substrate was subsequently coupled to a fluorescein isothiocyanate (FITC) group via the free amino group present on the phospho-tyrosine. Tdp1 was screened against the NCGC small molecule library using the AlphaScreen (AS) detection method in which a streptavidin donor AS bead is bound at the 5' end and an anti-FITC AS acceptor bead is bound at the 3' end of the DNA oligonucleotidic substrate. In the presence of Tdp1, the enzyme cleaves the tyrosine-FITC group, leaving a 3' end phosphate on the DNA substrate. This cleavage reaction results in a loss of signal in AS.
[1] 3 ul of buffer is dispensed in columns 3 & 4 as negative control (no enzyme and maximum signal),
[2] 3 ul of enzyme (1 nM final) is dispensed in columns 1,2, 5-48,
[3] 1 ul of substrate (15 nM final) is dispensed throughout the plate,
[4] 1 ul of AS donor/acceptor bead mix (10 ug/ml final) is dispensed throughout the plate
3 ul of Tdp1 enzyme is dispensed to 1536-well Kalypsys black solid bottom plates. Compounds and controls (23 nl) are transferred via Kalypsys Pin Tool. The plates are incubated for 15 min at room temperature, and then 1 ul of substrate is added to start the reaction. After 5 min incubation at room temperature, 1 ul of AS donor/acceptor bead mix is added and the plates are further incubated for 10 min at room temperature. The detection is then performed on a PerkinElmer Envision reader.
% is set by controls: 0 for no effect and ±100 for the full control effect; potency is the fitted concentration of half-maximal effect; tags give direction and shape of the fitted curve.

Q: With `N#Cc1c(/N=C/c2c(O)n(Cc3ccco3)c(=O)[nH]c2=O)sc2c1CCCC2` as the compound, how does the Potency read?
A: inconclusive: 12.6 µM [inhibitor, full curve]

Q: For `Nc1nc(N)c2nc(CNc3ccc(C(=O)NC(CCC(=O)O)C(=O)O)cc3)cnc2n1` (stereo not drawn), which Potency is on record?
A: inconclusive: 0.0224 µM [inhibitor, full curve, poor fit]

Q: Which Potency does the source give for `O=P(Oc1ccccc1)(Oc1ccccc1)c1ccccc1` here?
A: inconclusive: 28.2 µM [inhibitor, single point]

Q: `CCOC(=O)C1CCN(/C=C2/C(=O)NC(=O)N(Cc3ccco3)C2=O)CC1` was tested. Which Potency did it give?
A: active: 39.8 µM

Q: How did the “activity change, negative = inhibition” value turn out when `CNC(=O)Oc1ccc2ncccc2c1` was run?
A: inactive: -2.63%

Q: Which Potency does the source give for `CC(C)Cc1nc(N2CCNCC2)c(C#N)c2c1CCC2` here?
A: inconclusive: 89.1 µM [inhibitor, single point]

Q: `Cc1ccc2c(c1)=C/C(=C\c1c(O)[nH]c(=S)[nH]c1=O)C(=O)N=2` was tested. Which Potency did it give?
A: inconclusive: 5.62 µM [inhibitor, full curve, poor fit]

Q: How did the Potency turn out when `Nc1nc(/C(=C/CC(=O)O)C(=O)NC2C(=O)N3C(C(=O)O)=CCSC23)cs1` (stereo not drawn) was run?
A: active: 25.1 µM

Q: Which Potency does the source give for `Cc1ccc(OCC(=O)N2CCN(C3CCC(c4ccccc4)CC3)CC2)cc1` (stereo not drawn) here?
A: inconclusive: 0.398 µM [inhibitor, full curve, poor fit]

Q: With `Oc1cc(O)c2c(c1)OC(c1cc(O)c(O)c(O)c1)C(O)C2` (stereo not drawn) as the compound, how does the Potency read?
A: active: 15.8 µM

Q: How did the Potency turn out when `Cc1c(C(=O)O)cccc1-n1c(C)cc(/C=C2\C(=O)NC(=O)N(c3ccc4c(c3)OCO4)C2=O)c1C` was run?
A: inconclusive: 2.82 µM [inhibitor, full curve, poor fit]

Q: `Cc1cccc(-n2c(O)c(C=Nc3ccc(S(N)(=O)=O)cc3)c(=O)[nH]c2=O)c1` was tested. Which Potency did it give?
A: inconclusive: 25.1 µM [inhibitor, partial curve, poor fit]

Q: `CCOc1ccc2cc(C#N)c(=O)oc2c1` was tested. Which Potency did it give?
A: inactive

Q: `COc1cccc(CCNCc2c(F)cccc2F)c1` was tested. Which Potency did it give?
A: inconclusive: 3.98 µM [inhibitor, full curve, poor fit]

Q: How did the Potency turn out when `O=C(O)C1C(C(=O)O)C2(Cl)C(Cl)=C(Cl)C1(Cl)C2(Cl)Cl` (stereo not drawn) was run?
A: inconclusive: 0.316 µM [inhibitor, full curve, poor fit]

Q: With `COc1cc(/C=C/c2nc3ccccc3c(=O)n2-c2cccc(O)c2)ccc1O` as the compound, how does the Potency read?
A: inconclusive: 100 µM [inhibitor, single point]

Q: How did the “activity change, negative = inhibition” value turn out when `Cc1ccc(C)c(OCc2cc(C(=O)N3C[C@H]4C[C@@H](C3)c3cccc(=O)n3C4)no2)c1` was run?
A: inactive: 0.216%

Q: For `Cc1ccc(N2C(=O)NC(=O)/C(=C/c3ccc(-c4ccc(C(=O)O)c(Cl)c4)o3)C2=O)cc1`, which Potency is on record?
A: active: 20 µM
